# Results: PubChem BioAssay AID485294 (National Center for Advancing Translational Sciences (NCATS), 2010)
# Hit rate of the full screen: of about 370,000 compounds, about 150 (0.041%) were called active. The inconclusive results got no clear call from the source; some entries with a clear call stand among them for comparison. Calls follow the shape of the dose curve; as a rule, active = well fitted inhibition curve with a large enough effect; inconclusive = small, poorly fitted or top-dose-only effect; inactive = flat fitted curve, though single readings scatter. Potencies of inconclusive entries are left out as doubtful fits.
# Molecular target: Beta-lactamase (Escherichia coli (strain K12)) (UniProt P00811)
# Assay: qHTS Inhibitors of AmpC Beta-Lactamase (assay with detergent); also: nearly all actives have a fitted effect of over 25% in size
# Conditions: AmpC hydrolysis of nitrocefin, absorbance 480 nm, 0.01% Triton; series mostly up to 114 µM
# Method in brief: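 AmpC (5.3 nM in the dispensed reagent) in 20 mM phosphate pH 7.0 with 0.01% (detergent screen) or 0.0001% Triton X-100 was preincubated with compounds for 15 min at room temperature. Nitrocefin was then added from an 800 uM solution, and hydrolysis was followed at 480 nm.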
# Potency is read from the fitted curve at half-maximal effect; tags tell the direction and shape of the fitted curve.
# Chain of UniProt P00811 (P00811 whole entry, looked up): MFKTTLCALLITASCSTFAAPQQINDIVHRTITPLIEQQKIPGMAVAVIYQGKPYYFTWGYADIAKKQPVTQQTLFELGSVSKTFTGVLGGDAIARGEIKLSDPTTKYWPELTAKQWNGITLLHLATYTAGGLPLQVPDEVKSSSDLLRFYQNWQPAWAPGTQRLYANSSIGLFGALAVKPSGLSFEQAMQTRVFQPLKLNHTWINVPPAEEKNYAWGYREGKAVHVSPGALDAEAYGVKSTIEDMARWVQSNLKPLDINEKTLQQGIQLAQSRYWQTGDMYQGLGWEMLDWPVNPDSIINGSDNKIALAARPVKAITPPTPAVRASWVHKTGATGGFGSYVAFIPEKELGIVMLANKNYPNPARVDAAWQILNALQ
row,SMILES,Potency
1,O=C(Nc1ccc2nsnc2c1)c1ccc2c(c1)OCO2,inactive
2,O=C(NCCN1CCCC1)c1ccc(Cn2c(=S)[nH]c3cc4c(cc3c2=O)OCO4)cc1,"inconclusive [inhibitor, single point]"
3,Cc1[nH]c2ccc(Br)cc2c1CCNC(=O)c1cc2ccccc2oc1=O,inactive
4,CC1C(=O)N(Cc2ccc([N+](=O)[O-])cc2)c2ccccc2N1C(=O)C1CC1 (centres undefined),"inconclusive [inhibitor, partial curve, poor fit]"
5,COC(=O)[C@@H](Cc1ccccc1)NC(=O)NCCc1ccc(OC)c(OC)c1,"inconclusive [inhibitor, partial curve, poor fit]"
6,Cc1cc(F)ccc1Oc1cc(NN2CCCCC2)c([N+](=O)[O-])cc1[N+](=O)[O-],"inconclusive [inhibitor, full curve, poor fit]"
7,CCc1ccccc1NC(=O)CNC(=O)c1cc(C2CC2)nn1-c1ccccc1,inactive
8,Cc1ccc(C(=O)c2cc3ccccc3o2)cc1[N+](=O)[O-],"inconclusive [inhibitor, full curve, poor fit]"
9,COc1ccc(N2C(=NC(=O)c3ccc(Br)cc3)SC3CS(=O)(=O)CC32)cc1 (centres undefined),"inconclusive [inhibitor, full curve, poor fit]"
10,Cc1ccc(C(=O)NCc2nnc(SCC(=O)NC(C)c3ccccc3)n2C)cc1 (centres undefined),inactive
11,Cc1ccc(-c2ccc(CCC(=O)O)n2NC(=O)c2cccs2)cc1,inactive
12,NC(=O)C1CCN(C(c2ccccc2Cl)c2nnnn2CC2CCCO2)CC1 (centres undefined),"inconclusive [inhibitor, partial curve, poor fit]"
13,O=C(NCCOc1ccccc1)c1ccc2c(c1)OCO2,"inconclusive [inhibitor, full curve]"
14,O=C(NC1CCN(C(=O)NC2CCCCC2)CC1)c1ccco1,"inconclusive [inhibitor, full curve]"
15,O=C(NCCN1CCCCC1)Nc1ccc(F)cc1F,"inconclusive [inhibitor, full curve, poor fit]"
16,O=C(O)Cn1nc(-c2ccc(F)cc2)oc1=O,"inconclusive [inhibitor, full curve]"
17,COc1ccc(C(=O)N(C)C2CCCCC2)cc1S(=O)(=O)N1CCOCC1,"inconclusive [inhibitor, full curve, poor fit]"
18,COc1ccccc1NC(=O)c1nn(C)c(C(=O)Nc2ccccc2OC)c1[N+](=O)[O-],"inconclusive [inhibitor, partial curve]"
19,Cc1cccc(NC(=O)C[n+]2ccccc2)c1,inactive
20,COc1ccc(C)cc1S(=O)(=O)N1CCN(C(=O)c2ncoc2-c2cccc(F)c2)CC1,inactive
21,CCOC(=O)c1cccc(NC(=O)C2CCCN2S(=O)(=O)c2cccc3cccnc23)c1 (centres undefined),"inconclusive [inhibitor, partial curve]"
22,Cc1ccc(CCNC(=O)C2CCC(=O)N(Cc3cccc(F)c3)C2)cc1 (centres undefined),"inconclusive [inhibitor, full curve]"
23,CC(=O)c1ccc(NC(=O)CCc2c(C)nc3c(c2C)c(=O)n(C)c(=O)n3C)cc1,inactive

row,SMILES,Potency
1,CSc1ncc(Cl)c(C(=O)Nc2ccc(S(=O)(=O)Nc3nccc(C)n3)cc2)n1,inactive
2,C/C(=N\OC(=O)c1ccccc1)c1c(C)nc2cc(C)ccn12,"inconclusive [inhibitor, full curve, poor fit]"
3,O=C(NCC1CCCO1)c1ccc(NC(=O)C2C3C=CC(C3)C2C(=O)O)cc1 (centres undefined),"inconclusive [inhibitor, full curve, poor fit]"
4,N#Cc1nc(Cc2ccccc2)oc1N1CCN(c2cccc(Cl)c2)CC1,"inconclusive [inhibitor, single point]"
5,Cn1c(SCCC#N)nnc1-c1ccccc1F,"inconclusive [inhibitor, full curve, poor fit]"
6,O=C(NCCN1CCN(c2cccc(Cl)c2)CC1)c1ccc(CSc2nc3ccncc3[nH]2)cc1,inactive
7,OCC1(Cc2ccccc2)CCCN(Cc2c[nH]c3ccccc23)C1 (centres undefined),inactive
8,CCO[C@@H]1OC(C(=O)N2CCN(Cc3ccc4c(c3)OCO4)CC2)=C[C@H](c2cn(C(C)=O)c3ccccc23)[C@H]1CCCO,inactive
9,COC(=O)c1ccc(NC(=O)Nc2ccc(F)c(Cl)c2)cc1,inactive
10,Cc1ccc(NC(=O)c2cc(N3CCOCC3)nc3ccccc23)cc1,"inconclusive [inhibitor, partial curve, poor fit]"
11,N/C(=N\OC(=O)CC1CCCCC1)c1ccncc1,inactive
12,O=C(NCc1cccc(Cl)c1)C1CCC(=O)N(CCCN2CCOCC2)C1 (centres undefined),"inconclusive [inhibitor, full curve, poor fit]"
13,O=C(Cc1noc2ccccc12)Nc1ccccn1,inactive
14,COc1ccc(Cl)cc1NC(=O)CC(=O)Nc1cc(Cl)ccc1OC,"inconclusive [inhibitor, full curve, poor fit]"
15,O=C(Nc1nccs1)c1cc2sccc2n1Cc1ccc(Cl)cc1,"inconclusive [inhibitor, partial curve]"
16,COC(=O)C(Cc1ccccc1)NC(=O)COc1ccc(C(C)(C)C)cc1 (centres undefined),"inconclusive [inhibitor, full curve, poor fit]"
17,Cc1ccc(NC(=O)COC(=O)/C=C/c2ccc(Br)o2)cc1S(=O)(=O)N(C)C,inactive
18,COc1ccc(NC(=O)CSc2nc3ccccc3nc2N2CCCC2)c(OC)c1,"inconclusive [inhibitor, full curve, poor fit]"
19,C=CCn1c(CCSCc2ccc(OC)c(C)c2)n[nH]c1=S,"inconclusive [inhibitor, partial curve]"
20,Cc1csc2nc3ccccc3c(=O)n12,"inconclusive [inhibitor, full curve, poor fit]"
21,O=C(Nc1cccc(S(=O)(=O)N2CCCCC2)c1)c1ccc2c(c1)OCO2,"inconclusive [inhibitor, partial curve, poor fit]"
22,CCOC(=O)N1CCN(c2c(NCCCOC(C)C)c(=O)c2=O)CC1,"inconclusive [inhibitor, full curve, poor fit]"
23,Cc1ccc(-c2onc(C)c2C)cc1S(=O)(=O)NCc1ccc(N(C)C)cc1,inactive

row,SMILES,Potency
1,CC1(C)Cc2ccccc2C(c2cc3ccccc3oc2=O)=N1,"inconclusive [inhibitor, single point]"
2,CCCOc1ccccc1N1C(=O)CC(N2CCOCC2)C1=O (centres undefined),inactive
3,O=C(NC(=S)Nc1nc(-c2ccc(Cl)cc2)cs1)c1cccs1,"inconclusive [inhibitor, single point]"
4,O=C(COc1ccccc1Cl)Nc1nc(-c2cccs2)cs1,"inconclusive [inhibitor, single point]"
5,Cc1cc(C)c(NC(=O)C2CCCN(S(=O)(=O)c3c(C)noc3/C=C/N(C)C)C2)c(C)c1 (centres undefined),inactive
6,O=C(CCN1CCc2ccccc2C1)Nc1ccccc1F,"inconclusive [inhibitor, full curve, poor fit]"
7,CCc1nnc(NC2=NCCC2)s1,"inconclusive [inhibitor, single point]"
8,Fc1ccccc1N1CC(c2ccccc2)C(c2cccs2)=N1 (centres undefined),"inconclusive [inhibitor, full curve, poor fit]"
9,Oc1ccc(/C=N/Nc2ncc(Br)cn2)c(O)c1,inactive
10,CCOc1ccc(S(=O)(=O)N2CCN(c3cccc(C(F)(F)F)c3)CC2)cc1OCC,inactive
11,COCCCNC(=O)Cn1nc(-c2ccccc2OC)ccc1=O,"inconclusive [inhibitor, full curve, poor fit]"
12,COc1ccc(-c2cn(-c3ccccc3)c(=S)[nH]2)cc1OC,inactive
13,Cn1cccc1/C=N\NC(=O)Cc1ccc(Br)c2ccccc12,"inconclusive [inhibitor, single point]"
14,Cc1ccccc1OCc1nnc2n1CC(C)S2 (centres undefined),"inconclusive [inhibitor, full curve, poor fit]"
15,O=C(NC1CCCCC1)C1CCC(CNS(=O)(=O)c2cccc3nsnc23)CC1 (centres undefined),"inconclusive [inhibitor, full curve, poor fit]"
16,CN(C)C(=O)N1CCCC(C(=O)NCc2cccs2)C1 (centres undefined),"inconclusive [inhibitor, partial curve, poor fit]"
17,CCOc1ccc(Cn2nnc(C(=O)NCc3ccc(OC)cc3)c2N)cc1,inactive
18,Cc1ccccc1NS(=O)(=O)c1ccc(OCCNS(C)(=O)=O)cc1,"inconclusive [inhibitor, full curve, poor fit]"
19,CCOC(=O)c1ccccc1NC(=O)CN1C(=O)c2ccccc2S1(=O)=O,"inconclusive [inhibitor, full curve, poor fit]"
20,CCOC(=O)c1ccc(NC(=O)c2ccc(CN3CCOCC3)cc2)cc1,inactive
21,O=C(c1ccc2nc(N3CCCCC3)sc2c1)N1CCN(Cc2ccc3c(c2)OCO3)CC1,"inconclusive [inhibitor, full curve, poor fit]"
22,Cc1sc(NC(=O)CCS(=O)(=O)c2ccccc2)c(C#N)c1C,"inconclusive [inhibitor, full curve, poor fit]"
23,CN(C(=O)CN1CCC(NC(=O)C2CCCCC2)CC1)C1CCCCC1,"inconclusive [inhibitor, full curve, poor fit]"
